Some entries of the source have several records that differ or are many. The list is limited to them. There may be further records. The records of an entry repeat one measurement in other runs, samples, wells, individuals or studies.

This assay deals with C57BL/6 mice, Adenocarcinoma 755 sc, tumor weight T/C. Put plainly: NCI In Vivo Anticancer Drug Screen. Data for tumor model Adenocarcinoma 755 (subcutaneous) in C57BL/6 mice. The conditions noted are these: endpoint: mean tumor weight, higher = larger tumour. The procedure:
The antitumor activity of compounds was measured in mice bearing transplantable tumors. Survival or tumor size were measured and the results are expressed as the measurement made in the treated group (T) divided by the measurement made in the vehicle treated control group (C). The tumor model used in this assay is Adenocarcinoma 755 (subcutaneous) in C57BL/6 mice

Consider `Nc1ncnc2[nH]ncc12`, for which, where the note is “dose: 10.0 mg/kg/injection, schedule: Q01DX011 (ip), vehicle: saline”, the T/C is 2 % of control and 29 % of control.

`CC(=O)OCC(=O)[C@@]1(O)CC[C@H]2[C@@H]3CCC4=CC(=O)CC[C@]4(C)[C@H]3C(=O)C[C@@]21C`: where the note is “dose: 30.0 mg/kg/injection, schedule: Q01DX011 (sc), vehicle: saline”, the T/C is 38 % of control and 69 % of control.

In the case of `Cc1ncc(CO)c(C)c1O`, for the setting “dose: 75.0 mg/kg/injection, schedule: Q01DX011 (ip), vehicle: saline”, the T/C was 78 % of control and 112 % of control. Take `CNC=O`: the T/C (dose: 150.0 mg/kg/injection, schedule: Q01DX011 (ip), vehicle: saline) was 40 % of control, 73 % of control, 108 % of control. On to `CCc1c(CC(=O)O)c2cc(C)ccc2n1Cc1ccc(Cl)cc1`, for which the T/C (dose: 12.5 mg/kg/injection, schedule: Q01DX011 (ip), vehicle: saline) is 40 % of control and 91 % of control.

In the case of `C=CC(COC(C)=O)N1CC1` (stereo not given), the T/C runs as follows: (dose: 15.0 mg/kg/injection, schedule: Q01DX011 (oral), vehicle: saline) 64 % of control and 100 % of control; (dose: 30.0 mg/kg/injection, schedule: Q01DX011 (oral), vehicle: saline) 10 % of control and 46 % of control. As to `Nc1nc2n[nH]nc2c(=O)[nH]1`, the T/C (dose: 75.0 mg/kg/injection, schedule: Q01DX007 (sc), vehicle: carboxymethylcellulose (CMC)) is 3 % of control and 34 % of control. Regarding `C1CN1c1nc(N2CC2)nc(N2CC2)n1`, the T/C (dose: 0.25 mg/kg/injection, schedule: Q01DX011 (ip), vehicle: saline) was 10 % of control and 42 % of control. As to `S=c1nc[nH]c2nc[nH]c12`, where the note is “dose: 5.0 mg/kg/injection, schedule: Q01DX011 (ip), vehicle: carboxymethylcellulose (CMC)”, the T/C was 2 % of control and 30 % of control.

(Values after PubChem BioAssay AID218 (DTP/NCI, 2004).)
